{"source": "paper PMC12136788", "binders": {"B1": {"name": "chr12:79773885:79773986:-|3pUTR|ENSG00000058272|msi1|FALSE|unique (ssRNA)", "RNA": "GGGAGUUCUACAGUCCGACGAUCGGUUAUUUAUUCUUUGUAUCUAAAACUGAACAGCUACUGUGCUAUAUUGAUUUUAUUGGUAGUAUUGAGCAGACCUUGUUUCUGCAUGAAACUAGUUGCAAAACCCACUAUUUUGGAAAUCAACAGAGGAUUGAGCAUCA"}, "B2": {"name": "chr5:97028609:97028710:+|3pUTR|ENSG00000113441|msi1|total|mutant (ssRNA)", "RNA": "GGGAGUUCUACAGUCCGACGAUCUUGCAAAAGCCAAGGUAAAGCCAGGAUCGCUGCCAAGUUGUUUGCACUCUUUGGAGUUCCCGUCCGCUCAGGGCCUGACUGUAUUUUUCAUCCAUCUUUUCUGAAGUGUCUUUGGGCAGUCAACAGAGGAUUGAGCAUCA"}, "B3": {"name": "chr4:70820284:70820384:-|3pUTR|ENSG00000132463|msi1_unk|FALSE|overlapping (ssRNA)", "RNA": "GGGAGUUCUACAGUCCGACGAUCUGAACUGGUAUGGUUUGGCAGAAUAGUUUUAAAUUUUGCUGUAUUUGAUUACUUAGAGAUAGGAAUUUUUAAAAAUCAAAACAAAAAAUACCACAGCUUAGUGUAAAUGACAAUUUGGCGCAACAGAGGAUUGAGCAUCA"}, "B4": {"name": "chr3:66417149:66417250:-|CDS|ENSG00000144749|msi1|total|mutant (ssRNA)", "RNA": "GGGAGUUCUACAGUCCGACGAUCCAACAAGAUUCGCAGCGUGGAGGGGAGCCAGCUGAAGGCCUACCUUUCCUCCGAAGUGUCCGAUCUGAGUUUGAACAACAUCACGGAAGUGCGGAACACCUGCUUUCCACACGGACCGCCCAACAGAGGAUUGAGCAUCA"}, "B5": {"name": "chr4:123402332:123402450:+|CDS|ENSG00000164056|unk|FALSE|unique (ssRNA)", "RNA": "GGGAGUUCUACAGUCCGACGAUCGACGAAGGGGAUUCCUAUUCAGAUAAUCCUUGCUCCUGUUCACAAUCACACUGCUGCUCUAGAUACCUGUGUAUGGGAGCCAUGUCUUUAUUUUUACCUUGCUUACUCUGUUAUCCUCCUCAACAGAGGAUUGAGCAUCA"}, "B6": {"name": "chr20:25296659:25296760:+|3pUTR|ENSG00000100994|msi1|total|mutant (ssRNA)", "RNA": "GGGAGUUCUACAGUCCGACGAUCUGGGGGUCAGGGUGGUUUUGAGAGAGCAGGGUAAGGAAGGAAUGUGCCCGAAGUGCUCCCCGUUUCUUGUAAAGGAAGCCAGAGUUGACAGUACAAAGGGUCGUGGCCAGCCCUGCAGCUCAACAGAGGAUUGAGCAUCA"}, "B7": {"name": "chr1:17068045:17068226:-|3pUTR|ENSG00000117115|msi1|total|mutant (ssRNA)", "RNA": "GGGAGUUCUACAGUCCGACGAUCCUCCUUCCACUGCCUUGACUUUCUUCCUUUUUAUUCCUGGUGCCAUCUGUCCAGGCAGCCCGACAAGAACUUGUUCGCCAGCAGCCAGAUUCAGGCCUUCCCAGGGGCAUAAUAAGUGACCAACAGAGGAUUGAGCAUCA"}, "B8": {"name": "chr7:149003559:149003660:-|3pUTR|ENSG00000155660|msi1|total|mutant (ssRNA)", "RNA": "GGGAGUUCUACAGUCCGACGAUCUUUUAUACUUUGGUGUUUCACUUCAUGCUCUGAAUACUGAAUAACCAUGAAUGACUGAACCGUUCCGUCCAGAUUUUUACAGAGGAUACAUCUAUUUUUAUCAUUAUUUGGGGUUUGAAACAACAGAGGAUUGAGCAUCA"}, "B9": {"name": "chr12:2800410:2800520:+|CDS|ENSG00000004478|unk|FALSE|unique (ssRNA)", "RNA": "GGGAGUUCUACAGUCCGACGAUCAAAUACAAGCAAGCUUUACUACAGUAUAAGAAGAUCGUGUCUUGGCUGGAAUAUGAGUCUAGUUUUUCCAAUGAGGAAGCACAGAAAGCACAGGCCCUUCGACUGGCCUCUCACCUCAACCAACAGAGGAUUGAGCAUCA"}, "B10": {"name": "ENSG00000124766:be:win_301|CDS|ENSG00000124766|bound_else_gene|NA|bound_elsewhere_windowed (ssRNA)", "RNA": "GGGAGUUCUACAGUCCGACGAUCAAAGACAGCGACAAGAUCCCUUUCAUUCGAGAGGCGGAGCGGCUGCGCCUCAAGCACAUGGCUGACUACCCCGACUACAAGUACCGGCCCAGGAAGAAGGUGAAGUCCGGCAACGCCAACCAACAGAGGAUUGAGCAUCA"}, "B11": {"name": "chr15:38488102:38490688:-|three_prime_utr|ENSG00000172575|control|control|control (ssRNA)", "RNA": "GGGAGUUCUACAGUCCGACGAUCUACUCUGAAAGCAGAUAAUGAUGCCCUAAAGAUCCAACUGAAAUAUGCACAGAAGAAAAUAGAAUCCCUCCAGCUUGAAAAAAGCAAUCAUGUCUUAGCUCAAAUGGAGCAGGGUGACUGCAACAGAGGAUUGAGCAUCA"}, "B12": {"name": "chr3:186789481:186789582:+|3pUTR|ENSG00000156976|msi1_unk|FALSE|overlapping (ssRNA)", "RNA": "GGGAGUUCUACAGUCCGACGAUCUUGGGGUGGGUAUAAAAGAUGGGGUCUGUAAAAUCUUUCUUUCUUAGAAAUUUAUUUCCUAGUUCUGUAGAAAUGGUUGUAUUAGAUGUUCUCUAUCAUUUAAUAAUAUACUUGUGGACUCAACAGAGGAUUGAGCAUCA"}, "B13": {"name": "chr10:128108355:128108456:-|CDS|ENSG00000148773|msi1|FALSE|unique (ssRNA)", "RNA": "GGGAGUUCUACAGUCCGACGAUCAGUGGACACUCCAACAAGCACAAAGCAAUGGCCUAAGAGAAGUCUCAGGAAAGCAGAUGUAGAGGAAGAAUUCUUAGCACUCAGGAAACUAACACCAUCAGCAGGGAAAGCCAUGCUUACCAACAGAGGAUUGAGCAUCA"}, "B14": {"name": "chr7:130192614:130192715:-|CDS|ENSG00000146842|msi1|total|mutant (ssRNA)", "RNA": "GGGAGUUCUACAGUCCGACGAUCUACAUGACCGACCUACGAACUUUGGAUACUUUUCUCAGAAGUGAAGAGGAGAAACAGCACCGGGUUAAGCUGGGUACAUAUAUAUUUCUGUAUAUCUACUAUACAUAUUUUUGGUGUCAACAACAGAGGAUUGAGCAUCA"}, "B15": {"name": "chr7:5527443:5527567:-|3pUTR|ENSG00000075624|msi1_unk|total|mutant (ssRNA)", "RNA": "GGGAGUUCUACAGUCCGACGAUCCAUCCCCCAAAGUUCACAAUGUGGCCGAGGACUUUGAUUGCACAUUGUUGUUUUUUUAACCGUCAUUCCAAAUAUGAGAUGCGUUGUUACAGGAAGUCCCUUGCCAUCCUAAAAGCCACCCAACAGAGGAUUGAGCAUCA"}, "B16": {"name": "chr22:35662008:35662068:+|3pUTR|ENSG00000221963|msi1_unk|FALSE|overlapping (ssRNA)", "RNA": "GGGAGUUCUACAGUCCGACGAUCUGAGCAACUUUUAAUUAUUCUCCUGUCCUGCAAUAUGAGUUAAUCUUCUCUGAUCGAUGUAGAUUCCAGGAAGGGGUGUCCAGGACAAUUACCUUCCUUCUGGAGAAACUUCCCUUAAUCCAACAGAGGAUUGAGCAUCA"}, "B17": {"name": "ENSG00000107863:be:win_1851|CDS|ENSG00000107863|bound_else_gene|NA|bound_elsewhere_windowed (ssRNA)", "RNA": "GGGAGUUCUACAGUCCGACGAUCUCUUGUGAAAGUCCGAAGUAAUUCUCUGAAAGCUCCUUCCACGCAUGUCACAAAACCAUCAUUUAGCCAGAAAUCAUUUGUUUCUAUCAAAGACCAAAGACCAGUAAAUCACUUGCAUCACAACAGAGGAUUGAGCAUCA"}, "B18": {"name": "chr3:197282668:197282805:-|CDS|ENSG00000075711|msi1|total|mutant (ssRNA)", "RNA": "GGGAGUUCUACAGUCCGACGAUCUGGGAGAUUUCCAGCCUUCCAAGCUCUACUGUGACUUCAGAGACACUGCCAAGCAGCCUCCGCCCCCGUGCCGAGGUGAGAUAAAAAAUGUGUUCUGAAGCUGUUUUUUGGUGAUCAAUUCAACAGAGGAUUGAGCAUCA"}, "B19": {"name": "chr3:170392585:170392686:+|3pUTR|ENSG00000136603|msi1|total|mutant (ssRNA)", "RNA": "GGGAGUUCUACAGUCCGACGAUCUACAUUUUCCAAAUGAAUGAAAAUGUAUGUUUCUUUGUACUUUUUUAAAAAAAUCAGCUCCGUAACAAUACUAUAUGGUUUCAACCCGCCGGUAAUCUGCUUAUAUUUCUAAUGCAAACUCAACAGAGGAUUGAGCAUCA"}, "B20": {"name": "chr11:18297563:18297669:-|CDS|ENSG00000110756|unk|FALSE|unique (ssRNA)", "RNA": "GGGAGUUCUACAGUCCGACGAUCGAUCUAAUUUCUCAACUGGAAGAAUUGAUCUUAAAAUUUGAACCUUUGGAUUCAGCUUGUAGCAGUAGAAGAAGCUCCAUUUCAUCACAUGUAAGUAUUCUCACCUUUAAAGGAUUUUGUCAACAGAGGAUUGAGCAUCA"}, "B21": {"name": "chr4:76435395:76435496:+|5pUTR|ENSG00000138771|msi1|total|mutant (ssRNA)", "RNA": "GGGAGUUCUACAGUCCGACGAUCUUUUCUCUCCUAAGAAACAAACUAUGAACUGAUUGUUGAAAAAAAGAAGUAAAAAGUUUCCGCACAGCUUCUCUGUCUCUUCGGGACAAGUCCGAAAAUUCUGAAGUGAGCCGAAGCAUACAACAGAGGAUUGAGCAUCA"}, "B22": {"name": "ENSG00000136451:be:win_4101|3pUTR|ENSG00000136451|bound_else_gene|NA|bound_elsewhere_windowed (ssRNA)", "RNA": "GGGAGUUCUACAGUCCGACGAUCGUCUUGGAACUGGAAUUGAGUUUCGAUGUUGAUGAACUGAUUCAACCAGGUGUUGAAGGCACGACAGCCACUGCUCUACGAAAAGGCAGAGUACGUUUUUCCCUUCUGGUUGUAACCUGGCAACAGAGGAUUGAGCAUCA"}}, "note": "Some of the results follow."}
{"target": "MSI1 full-length (mouse, UniProt Q61474 1-362)", "sequence (Q61474 whole entry)": "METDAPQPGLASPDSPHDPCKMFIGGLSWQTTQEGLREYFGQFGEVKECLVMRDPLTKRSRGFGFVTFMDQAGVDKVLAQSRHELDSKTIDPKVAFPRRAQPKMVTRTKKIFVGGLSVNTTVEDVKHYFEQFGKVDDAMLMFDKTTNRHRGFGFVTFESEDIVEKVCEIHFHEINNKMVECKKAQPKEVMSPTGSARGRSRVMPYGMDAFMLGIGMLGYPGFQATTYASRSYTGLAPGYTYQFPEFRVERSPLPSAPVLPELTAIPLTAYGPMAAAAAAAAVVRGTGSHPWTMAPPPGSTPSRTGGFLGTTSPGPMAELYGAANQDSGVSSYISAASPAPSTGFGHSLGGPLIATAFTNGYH", "test": "nsRBNS (natural sequence RNA bind-n-seq); RBNS binding buffer (assumed for nsRBNS): 25 mM Tris pH 7.5, 150 mM KCl, 3 mM MgCl2, 0.01% Triton X-100, 500 ug/ml BSA, 20 U/ml SUPERase-In, 4 C; UNK is unkempt and MSI1 is Musashi-1; names of the RNAs are library labels; protein concentration not given here; high values mean tight binding", "units": {"binding signal": "enrichment R"}}
{"binder": "B1", "binding signal": 1.35}
{"binder": "B2", "binding signal": 0.321}
{"binder": "B3", "binding signal": 4.91}
{"binder": "B4", "binding signal": 0.36}
{"binder": "B5", "binding signal": 0.647}
{"binder": "B6", "binding signal": 0.673}
{"binder": "B7", "binding signal": 0.467}
{"binder": "B8", "binding signal": 0.545}
{"binder": "B9", "binding signal": 0.781}
{"binder": "B10", "binding signal": 0.471}
{"binder": "B11", "binding signal": 0.706}
{"binder": "B12", "binding signal": 3.31}
{"binder": "B13", "binding signal": 0.872}
{"binder": "B14", "binding signal": 0.38}
{"binder": "B15", "binding signal": 0.408}
{"binder": "B16", "binding signal": 0.305}
{"binder": "B17", "binding signal": 1.64}
{"binder": "B18", "binding signal": 0.329}
{"binder": "B19", "binding signal": 0.822}
{"binder": "B20", "binding signal": 2.3}
{"binder": "B21", "binding signal": 0.234}
{"binder": "B22", "binding signal": 0.402}
